In the supplement of paper PMC8728848:
This is one part of the list.

Tests used:
Experiment in all cases: glycan array binding signal (z-score within array); higher = stronger binding
Details in all cases: glycan notation: IUPAC condensed, linker removed
[1] = target: Neu5Ac(a2-8)Neu5Ac
In short: (§1)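 Glycan array data came from 3228 arrays in the Consortium for Functional Glycomics database, and only arrays with an available protein sequence were kept. Glycan names were put into IUPAC-condensed notation, and columns mapping to the same glycan were averaged. The binding signal is a within-array Z-score, averaged across arrays of one protein sequence run at different concentrations or buffers and across linkers. A negative Z-score can be read as non-binding.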

[2] = target: Neu5Ac(a2-8)Neu5Ac(a2-3)Gal(b1-4)Glc
In short: as §1

[3] = target: Neu5Ac(a2-8)Neu5Ac(a2-3)[GalNAc(b1-4)]Gal(b1-4)Glc
In short: as §1

[4] = target: Neu5Ac(a2-8)Neu5Ac(a2-8)Neu5Ac
In short: as §1

[5] = target: Neu5Ac(a2-8)Neu5Ac(a2-8)Neu5Ac(a2-3)Gal(b1-4)Glc
In short: as §1

[6] = target: Neu5Ac(a2-8)Neu5Ac(a2-8)Neu5Ac(a2-3)[GalNAc(b1-4)]Gal(b1-4)Glc
In short: as §1

[7] = target: Neu5Ac(a2-8)Neu5Ac(a2-8)Neu5Ac(a2-8)Neu5Ac(a2-3)[GalNAc(b1-4)]Gal(b1-4)Glc
In short: as §1

[8] = target: Neu5Ac(b2-6)Gal(b1-4)GlcNAc
In short: as §1

[9] = target: Neu5Ac(b2-6)GalNAc
In short: as §1

[10] = target: Neu5Ac9Ac(a2-3)Gal(b1-3)GlcNAc
In short: as §1

[11] = target: Neu5Ac9Ac(a2-3)Gal(b1-4)GlcNAc
In short: as §1

[12] = target: Neu5Ac9Ac(a2-6)Gal(b1-4)GlcNAc
In short: as §1

[13] = target: Neu5Gc(a2-3)Gal(b1-3)GlcNAc
In short: as §1

[14] = target: Neu5Gc(a2-3)Gal(b1-3)[Fuc(a1-4)]GlcNAc
In short: as §1

[15] = target: Neu5Gc(a2-3)Gal(b1-4)Glc
In short: as §1

[16] = target: Neu5Gc(a2-3)Gal(b1-4)GlcNAc
In short: as §1

[17] = target: Neu5Gc(a2-3)Gal(b1-4)[Fuc(a1-3)]GlcNAc
In short: as §1

[18] = target: Neu5Gc(a2-6)Gal(b1-4)GlcNAc
In short: as §1

[19] = target: Neu5Gc(a2-6)GalNAc
In short: as §1

[20] = target: Neu5Gc(b2-6)Gal(b1-4)GlcNAc
In short: as §1

B1: exo-alpha-sialidase (Propionibacterium acnes), Q6A7G1 (protein)
chain: GSHMSGRAPAPVAATTQPKLVTGDITSTDQSGTNLFFGKKIVRNARGAIMKVDRTWPAAVPAPLPDVRADSSTRMLLGPVVDLAVNEHPEGVFYRIPALATASNGDLLASYDLRPGSAGDAPNPNSIVQRRSRDNGRTWGPQTVIHAGTPGRRKVGYSDPSYLVDPATGRILNFHVKSYDRGFATSEVGTDPDDRHVLHAEVSTSTDNGHTWTHRDITREITSDPTTRTRFVASGQGIALLHGPHAGRLIAQMTVRNSVGQQAQSIYSDDHGITWHAGNPVGRMMDENKVVELSDGTLMLNSRDAARSGRRKVAYSQDGGLTWGPVKLVDDLIDPTNNAQIIRAYPNARAGSAKARILLFTNARNATERVNGTLSVSCDDGRTWVSHQTYMPGEVGYTTAAVQSDGALGVLWERDGIRYSTIPMGWLNSVCPLAPSGRPTSGKPTSGTSLPPTAT
B1 was tested. Which “glycan array binding signal (z-score)” value [1] did it give?
The value was 0.678.

What about the “glycan array binding signal (z-score)” value [2] of the same binder?
Its value is 0.71.

What about the “glycan array binding signal (z-score)” value [3] of the same binder?
Its value is 0.035.

What about the “glycan array binding signal (z-score)” value [4] of the same binder?
The value was 1.51.

And the “glycan array binding signal (z-score)” value [5]?
The value was 1.32.

What about the “glycan array binding signal (z-score)” value [6] of the same binder?
Its value is 0.406.

What about the “glycan array binding signal (z-score)” value [7] of the same binder?
The value was 1.41.

What about the “glycan array binding signal (z-score)” value [8] of the same binder?
Its value is -0.348.

What about the “glycan array binding signal (z-score)” value [9] of the same binder?
The value was -0.351.

What about the “glycan array binding signal (z-score)” value [10] of the same binder?
The value was 0.072.

And the “glycan array binding signal (z-score)” value [11]?
The value was -0.016.

What about the “glycan array binding signal (z-score)” value [12] of the same binder?
Its value is -0.195.

What about the “glycan array binding signal (z-score)” value [13] of the same binder?
Its value is 0.043.

What about the “glycan array binding signal (z-score)” value [14] of the same binder?
Its value is -0.314.

What about the “glycan array binding signal (z-score)” value [15] of the same binder?
The value was -0.234.

And the “glycan array binding signal (z-score)” value [16]?
The value was -0.041.

And the “glycan array binding signal (z-score)” value [17]?
Its value is -0.196.

And the “glycan array binding signal (z-score)” value [18]?
The value was -0.291.

What about the “glycan array binding signal (z-score)” value [19] of the same binder?
Its value is -0.24.

And the “glycan array binding signal (z-score)” value [20]?
Its value is -0.367.
